Laboratory results as given in article PMC4336329 (PLoS ONE, 2015).
In all, about 310,000 compounds went through this assay and about 2,200 (0.71%) showed an effect of 50% or more. The effect is printed as a negative number. The list shows a part of the results.

What follows are molecules tested against human ether-à-go-go-related gene (hERG) potassium channel (human, UniProt Q12809) (assay: primary screen, population patch clamp on CHO cells stably expressing hERG).
human ether-à-go-go-related gene (hERG) potassium channel, sequence (Q12809 whole entry, looked up): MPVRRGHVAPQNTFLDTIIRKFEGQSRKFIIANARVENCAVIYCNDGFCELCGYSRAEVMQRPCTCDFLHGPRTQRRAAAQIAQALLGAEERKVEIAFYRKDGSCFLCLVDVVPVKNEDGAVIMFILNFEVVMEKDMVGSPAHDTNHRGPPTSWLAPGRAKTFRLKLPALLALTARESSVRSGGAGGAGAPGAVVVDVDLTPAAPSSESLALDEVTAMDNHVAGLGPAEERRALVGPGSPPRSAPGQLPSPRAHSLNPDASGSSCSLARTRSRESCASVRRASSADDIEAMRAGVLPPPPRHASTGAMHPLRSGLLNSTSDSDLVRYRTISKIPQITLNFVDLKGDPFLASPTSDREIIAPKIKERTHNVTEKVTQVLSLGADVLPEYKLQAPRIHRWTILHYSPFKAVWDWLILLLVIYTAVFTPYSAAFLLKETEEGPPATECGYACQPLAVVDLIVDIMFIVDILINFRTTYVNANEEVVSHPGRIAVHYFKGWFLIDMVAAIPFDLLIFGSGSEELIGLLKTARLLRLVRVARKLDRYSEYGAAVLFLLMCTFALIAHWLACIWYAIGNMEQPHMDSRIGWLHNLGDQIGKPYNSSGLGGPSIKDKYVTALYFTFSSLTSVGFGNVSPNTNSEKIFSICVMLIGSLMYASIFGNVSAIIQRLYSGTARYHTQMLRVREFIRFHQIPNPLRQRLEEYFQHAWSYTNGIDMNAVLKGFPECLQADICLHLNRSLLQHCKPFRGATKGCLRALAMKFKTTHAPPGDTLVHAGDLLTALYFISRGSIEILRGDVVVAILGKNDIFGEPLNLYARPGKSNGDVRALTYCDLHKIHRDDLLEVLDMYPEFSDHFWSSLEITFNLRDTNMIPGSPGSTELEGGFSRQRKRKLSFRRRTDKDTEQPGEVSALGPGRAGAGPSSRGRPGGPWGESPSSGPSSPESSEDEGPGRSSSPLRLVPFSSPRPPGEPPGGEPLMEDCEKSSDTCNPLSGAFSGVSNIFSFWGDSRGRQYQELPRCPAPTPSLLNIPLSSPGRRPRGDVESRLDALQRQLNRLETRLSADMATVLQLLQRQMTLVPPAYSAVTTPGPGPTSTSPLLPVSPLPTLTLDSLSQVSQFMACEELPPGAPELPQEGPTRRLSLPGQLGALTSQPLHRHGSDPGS

| SMILES | hERG current change (%, negative = inhibition) at 1uM [%] |
| --- | --- |
| CN=c1scc(-c2ccc(OC)cc2)n1/N=C(\C)c1cccnc1 | 19.5 |
| O=c1c(Cl)c(Nc2cccc(Cl)c2)cnn1-c1nc2ccccc2s1 | 11.6 |
| Cc1nn(-c2ccccc2)c2c1C(c1ccncc1)C(C#N)=C(N)O2 (stereo not drawn) | 10.3 |
| CN1CCN(C(=O)c2cc3ccccc3[nH]2)CC1 | 11.9 |
| COc1ccc(/C=N/N(C)c2cc(=O)n(C)c(=O)[nH]2)cc1OC | 15.5 |
| CC(OC(=O)c1ccc2c(c1)C(=O)N(Cc1ccncc1)C2=O)C(=O)Nc1cccc(Cl)c1Cl (stereo not drawn) | 4.8 |
| CCOc1ccccc1OCC(=O)Nc1cccc(S(=O)(=O)NC2=NCCCCC2)c1 | -5.2 |
| Cc1nc2ccccc2c(=O)n1/N=C/c1ccc(C(C)C)cc1 | 19.4 |
| Cc1ccc(-c2nnn(CC(=O)NCCC3=CCCCC3)n2)cc1 | 18.4 |
| CCc1cc(C(=O)Nc2cc(S(=O)(=O)N(CC)CC)ccc2N2CCOCC2)sc1C | 12.5 |
| O=C(NCc1ccco1)c1ccc(N2CCCC2=O)cc1 | 6.75 |
| O=C1CCc2nc3ccccc3c(=O)n2N1 | 14.2 |
| Cc1ccc2cc(CN(CC3CCCO3)C(=O)C(C)C)c(=O)[nH]c2c1 (stereo not drawn) | -4.78 |
| CC(=O)OC(C(=O)N1CCN(c2ccc(F)cc2)CC1)c1ccccc1 (stereo not drawn) | -0.58 |
| NC(=O)c1ccc(NC(=O)CSc2cn(CC(=O)N3CCOCC3)c3ccccc23)cc1 | 15.4 |
| Cc1ccc(S(=O)(=O)c2c(C(=O)c3ccccc3)cnc3cc4c(cc23)OCCO4)cc1 | 10.9 |
| CC(C)CN=Cc1c(O)c([N+](=O)[O-])cc2oc3c(c12)CCCC3 | 5.26 |
| COC1C(OC(=O)c2ccc(C)[nH]2)C(O)C(Oc2ccc3c(O)c(NC(=O)c4ccc(O)c(CC=C(C)C)c4)c(=O)oc3c2Cl)OC1(C)C (stereo not drawn) | 12.9 |
| CC/C(=N/NC(=O)c1ccc2c(c1)OCO2)c1ccccc1O | 9.19 |
| Nc1ccccc1-n1cccc1 | 11 |
| COC(=O)c1[nH]c2ccc(C)cc2c1NC(=O)C(C)N1CCN(C2CCCCC2)CC1 (stereo not drawn) | -81 |

| SMILES | hERG current change (%, negative = inhibition) at 1uM [%] |
| --- | --- |
| O=C(O)c1ccc(Cl)c(N2C(=O)Nc3ccccc3N2O)c1 | 11.4 |
| COc1cccc(C(=O)c2cc3cc(Cl)ccc3[nH]2)c1 | 15 |
| Cc1c(CCC(=O)N2CCC(C(=O)NCCCCCC(=O)O)CC2)c(=O)oc2cc3oc4c(c3cc12)CCCC4 | 12.8 |
| C=CCOc1ccc(/C=N/NC(=O)C2CCCC2)cc1OCC | 1.48 |
| COC(=O)[C@H](CC(C)C)NS(=O)(=O)N[C@@H](CC(C)C)C(=O)OC | 17.4 |
| CSc1nc(=NC(C)=O)ss1 | 14.4 |
| COc1ccc(CN2C(=O)c3cccnc3C2=O)cc1S(=O)(=O)N1CC(C)Oc2ccccc21 (stereo not drawn) | 5.45 |
| Cc1ccc(NC(=O)N2CCC(NC(=O)c3cccc(F)c3)CC2)cc1 | 5.18 |
| COc1cccc(CNc2cnc3ccccc3c2)c1O | 14.9 |
| O=c1c2ccccc2n(Cc2ccccc2F)c(=O)n1Cc1ccccc1F | 17.4 |
| CCOc1ccc(C(C(=O)NCC2CCCO2)N(Cc2cccs2)C(=O)c2snc(C(N)=O)c2N)cc1 (stereo not drawn) | 13 |
| COC(=O)C1=C(C)NC(=S)N(C(C)=O)C1c1ccc(OC)c(OC)c1 (stereo not drawn) | 8.84 |
| Cc1cc(C)n2nc3nc(N4CCCCC4)nc(-c4ccco4)c3c2n1 | 17.3 |
| CCC(NC(=O)COC(=O)C1CC2CCCC(C1)C2=O)c1ccc(Br)cc1 (stereo not drawn) | 12 |
| O=c1[nH]c(Nc2nc3ccccc3o2)nc2c1CCCC2 | 10.2 |
| O=C(CCNC(=O)c1ccc(Cl)cc1)NCc1cccc(C(F)(F)F)c1 | 8.11 |
| COC(=O)c1c(/N=C/NOCc2ccc(Cl)cc2)sc2c1CCN(c1ncc(C(F)(F)F)cc1Cl)C2 | 8.22 |
| CCN(CC(=O)NCc1ccc(Cl)cc1)C(=O)CCOc1ccc(C)cc1 | -38.8 |
| COc1cccc(N2CCN(C(=O)CN3C(=O)NC(C)(c4ccc5ccccc5c4)C3=O)CC2)c1 (stereo not drawn) | -10.5 |
| CCc1ccc(NC(=O)C2C3CCC(O3)C2C(=O)O)cc1 (stereo not drawn) | 12.8 |
| CCOC(=O)N1CCN(C(=O)c2ccc3c(c2)sc2nc(-c4ccccc4)cn23)CC1 | -1.93 |
